Lines with a small IC50 respond at low doses; a limit (>, <) means that the fit lies beyond the doses tested. For AUC the same curve is integrated over the 256-fold range of doses and scaled to a fraction; the more sensitive the line, the further below 1. Any top dose called inferred was calculated from the reported fits.

This is an account of results in the supplement of paper PMC4967469.

Compound in this assay: CCc1nc(-c2cccc(C)c2)c(-c2ccnc(NC(=O)c3ccccc3)c2)s1 [TAK-715]
Briefly: Viability of human cancer cell lines after 72 h of drug (GDSC screen). The following applies: top dose inferred. As to the method: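 Human cancer cell lines in 384-well plates, medium with 10% serum, drug for 72 h over a 256-fold dose range (nine 2-fold or five 4-fold steps up to the top dose). Adherent lines were fixed and stained with the nucleic acid dye Syto60, suspension lines read with resazurin; signal relative to control wells, capped at 0 and 100%. One two-parameter sigmoid per drug and line, fitted in a mixed model over all curves with the slope shared within a line.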

As to “D-542MG (glioma, adherent, top dose 20 µM)”, the AUC is 0.984 and the IC50 is greater than 20 µM.
The like results for “D-566MG (glioma, adherent, top dose 20 µM)” were, in that order, 0.986 and greater than 20 µM.
The like results for “DAN-G (pancreas, adherent, top dose 20 µM)” were, in that order, 0.983 and greater than 20 µM.
Consider “DB (B-cell lymphoma, suspension, top dose 20 µM)”, for which the AUC stood at 0.813 and the half-maximal inhibitory concentration (IC50) worked out at 12.6 µM.
In the case of “DBTRG-05MG (glioma, adherent, top dose 20 µM)”, the AUC worked out at 0.969 and the IC50 was greater than 20 µM.
On to “DEL (lymphoid neoplasm, suspension, top dose 20 µM)”, for which the AUC worked out at 0.917 and the 50% inhibitory concentration (IC50) worked out at 18.9 µM.
Regarding “DG-75 (Burkitt lymphoma, suspension, top dose 20 µM)”, the AUC came to 0.884 and the IC50 is greater than 20 µM.
For DJM-1 (skin, adherent, top dose 20 µM), in that order: 0.978 and greater than 20 µM.
For “DK-MG (glioma, adherent, top dose 20 µM)”, in that order: 0.978 and greater than 20 µM.
For “DMS-53 (small cell lung carcinoma, adherent, top dose 20 µM)”, in that order: 0.981 and greater than 20 µM.
Turning to “DMS-79 (small cell lung carcinoma, suspension, top dose 20 µM)”, the AUC came out at 0.974 and the 50% inhibitory concentration (IC50) is greater than 20 µM.
The like results for “DMS-114 (small cell lung carcinoma, adherent, top dose 20 µM)” were, in that order, 0.961 and greater than 20 µM.
“DMS-273 (small cell lung carcinoma, adherent, top dose 20 µM)”: the AUC turned out to be 0.9 and the IC50 is greater than 20 µM.
For “DND-41 (T-cell leukaemia, suspension, top dose 20 µM)”, in that order: 0.899 and greater than 20 µM.
For “DOK (head and neck, adherent, top dose 20 µM)”, in that order: 0.969 and greater than 20 µM.
The like results for DOV13 (ovary, adherent, top dose 20 µM) were, in that order, 0.928 and greater than 20 µM.
On to “DSH1 (bladder, adherent, top dose 20 µM)”, for which the AUC turned out to be 0.952 and the half-inhibitory concentration (IC50) is greater than 20 µM.
The like results for “DU-145 (prostate, adherent, top dose 20 µM)” were, in that order, 0.967 and greater than 20 µM.
For the cell line “DU-4475 (breast, suspension, top dose 20 µM)”, the AUC was found to be 0.894 and the IC50 stood at 16.2 µM.
For “Daoy (medulloblastoma, adherent, top dose 20 µM)”, in that order: 0.97 and greater than 20 µM.
The like results for “Daudi (Burkitt lymphoma, suspension, top dose 20 µM)” were, in that order, 0.9 and 19.8 µM.
For “Detroit562 (head and neck, adherent, top dose 20 µM)”, in that order: 0.968 and greater than 20 µM.
“DoTc2-4510 (cervix, adherent, top dose 20 µM)”: the AUC is 0.957 and the IC50 is greater than 20 µM.
Consider “EB2 (Burkitt lymphoma, suspension, top dose 20 µM)”, for which the AUC is 0.68 and the IC50 stood at 3.76 µM.
For “EB-3 (Burkitt lymphoma, suspension, top dose 20 µM)”, in that order: 0.87 and greater than 20 µM.
For “EBC-1 (lung squamous cell carcinoma, adherent, top dose 20 µM)”, in that order: 0.96 and greater than 20 µM.
Consider “EC-GI-10 (oesophagus, adherent, top dose 20 µM)”, for which the AUC was found to be 0.946 and the IC50 was greater than 20 µM.
For “ECC10 (stomach, suspension, top dose 20 µM)”, in that order: 0.831 and 13.5 µM.
“EFM-19 (breast, adherent, top dose 20 µM)”: the AUC turned out to be 0.951 and the IC50 is greater than 20 µM.
On to “EFM-192A (breast, adherent, top dose 20 µM)”, for which the AUC was 0.941 and the IC50 is greater than 20 µM.
For the cell line “EFO-21 (ovary, adherent, top dose 20 µM)”, the AUC was found to be 0.925 and the IC50 is greater than 20 µM.
For “EFO-27 (ovary, adherent, top dose 20 µM)”, in that order: 0.917 and greater than 20 µM.
With “EGI-1 (biliary tract, adherent, top dose 20 µM)”, the AUC was 0.903 and the half-maximal inhibitory concentration (IC50) was greater than 20 µM.
The like results for “EJM (lymphoid neoplasm, semi-adherent, top dose 20 µM)” were, in that order, 0.934 and greater than 20 µM.
For “EKVX (lung adenocarcinoma, adherent, top dose 20 µM)”, in that order: 0.961 and greater than 20 µM.
For “EM-2 (chronic myeloid leukaemia, suspension, top dose 20 µM)”, in that order: 0.918 and greater than 20 µM.
As to “EMC-BAC-1 (lung adenocarcinoma, adherent, top dose 20 µM)”, the AUC is 0.861 and the IC50 was greater than 20 µM.
As to “EMC-BAC-2 (lung adenocarcinoma, adherent, top dose 20 µM)”, the AUC came to 0.933 and the half-maximal inhibitory concentration (IC50) is greater than 20 µM.
Turning to “EN (endometrium, adherent, top dose 20 µM)”, the AUC stood at 0.95 and the IC50 was greater than 20 µM.
For “EPLC-272H (lung squamous cell carcinoma, adherent, top dose 20 µM)”, in that order: 0.83 and 14.9 µM.
The like results for “ES1 (Ewing sarcoma, adherent, top dose 20 µM)” were, in that order, 0.841 and 13.6 µM.
For the cell line “ES3 (Ewing sarcoma, adherent, top dose 20 µM)”, the AUC is 0.929 and the IC50 is greater than 20 µM.
For “ES4 (Ewing sarcoma, adherent, top dose 20 µM)”, in that order: 0.808 and 12.2 µM.
The like results for “ES5 (Ewing sarcoma, adherent, top dose 20 µM)” were, in that order, 0.741 and 6.89 µM.
For “ES6 (Ewing sarcoma, adherent, top dose 20 µM)”, in that order: 0.955 and greater than 20 µM.
Consider “ES7 (Ewing sarcoma, adherent, top dose 20 µM)”, for which the AUC came to 0.857 and the half-maximal inhibitory concentration (IC50) is 17 µM.
Take “ES8 (Ewing sarcoma, adherent, top dose 20 µM)”: the AUC was found to be 0.881 and the IC50 was found to be 18.2 µM.
For ES-2 (ovary, adherent, top dose 20 µM), in that order: 0.956 and greater than 20 µM.
For “ESO26 (oesophagus, adherent, top dose 20 µM)”, in that order: 0.874 and 17.5 µM.
For “ESO51 (oesophagus, semi-adherent, top dose 20 µM)”, in that order: 0.955 and greater than 20 µM.
As for “ESS-1 (endometrium, adherent, top dose 20 µM)”, the AUC turned out to be 0.969 and the IC50 is greater than 20 µM.
Take “ETK-1 (biliary tract, adherent, top dose 20 µM)”: the AUC is 0.933 and the half-maximal inhibitory concentration (IC50) is greater than 20 µM.
The like results for “EVSA-T (breast, adherent, top dose 20 µM)” were, in that order, 0.958 and greater than 20 µM.
As to “EW-1 (Ewing sarcoma, semi-adherent, top dose 20 µM)”, the AUC stood at 0.878 and the concentration for half-maximal inhibition (IC50) worked out at 17.5 µM.
For “EW-3 (Ewing sarcoma, adherent, top dose 20 µM)”, in that order: 0.956 and greater than 20 µM.
The like results for “EW-7 (Ewing sarcoma, semi-adherent, top dose 20 µM)” were, in that order, 0.903 and greater than 20 µM.
As to “EW-11 (Ewing sarcoma, adherent, top dose 20 µM)”, the AUC is 0.98 and the IC50 was greater than 20 µM.
For “EW-13 (Ewing sarcoma, suspension, top dose 20 µM)”, in that order: 0.786 and 9.67 µM.
The like results for “EW-16 (Ewing sarcoma, adherent, top dose 20 µM)” were, in that order, 0.934 and greater than 20 µM.
“EW-18 (Ewing sarcoma, suspension, top dose 20 µM)”: the AUC is 0.858 and the IC50 was determined as 18.3 µM.
The like results for “EW-24 (Ewing sarcoma, semi-adherent, top dose 20 µM)” were, in that order, 0.942 and greater than 20 µM.
Turning to “EoL-1-cell (haematopoietic neoplasm, suspension, top dose 20 µM)”, the AUC amounted to 0.848 and the concentration for half-maximal inhibition (IC50) was found to be 12.3 µM.
For “FADU (head and neck, adherent, top dose 20 µM)”, in that order: 0.959 and greater than 20 µM.
For “FLO-1 (oesophagus, adherent, top dose 20 µM)”, in that order: 0.904 and greater than 20 µM.
As to “FTC-133 (thyroid, adherent, top dose 20 µM)”, the AUC was 0.976 and the half-maximal inhibitory concentration (IC50) is greater than 20 µM.
Regarding “FU97 (stomach, adherent, top dose 20 µM)”, the AUC was found to be 0.894 and the IC50 is greater than 20 µM.
Take “FU-OV-1 (ovary, adherent, top dose 20 µM)”: the AUC worked out at 0.881 and the IC50 was greater than 20 µM.
